In PubChem BioAssay AID2676 (National Center for Advancing Translational Sciences (NCATS), 2010):
Several values for one entry are separate records, joined by “and”; a condition that tells them apart may be missing. Equal values may be shown once. Out of some 370,000 compounds screened, about 1,100 (0.3%) were called active. This list was built around the results that the source calls inconclusive (neither active nor inactive); the mix of calls is not that of the screen. The call rests on the fitted dose curve; in most records, active means well fitted activation curve with a large enough effect; inconclusive means small, poorly fitted or top-dose-only effect; inactive means flat fitted curve, though single readings scatter. Potencies beside an inconclusive call are fits to weak or partial responses and may not hold up.

Target: Relaxin receptor 1 (Homo sapiens) (UniProt Q9HBX9)
Assay: qHTS Assay for Agonists of the Relaxin Receptor RXFP1; further: nearly all actives have a fitted effect of over 60% in size
Settings: HEK293T-RXFP1 cAMP TR-FRET, 30 min; series mostly up to 57.5 µM
Text: NIH Chemical Genomics Center [NCGC] NIH Molecular Libraries Probe Production Centers Network [MLPCN] MLPCN Grant: R03 MH085705-01A1 Assay Submitter (PI): Alexander Agoulnik NCGC Assay Overview: The relaxin hormone is involved in the variety of biological functions in normal tissues and diseases. The role of relaxin is well-established in female reproduction and parturition, mammary gland and endometrial development, maintenance of myometrial quiescence during pregnancy. Relaxin signaling through its G protein-coupled receptor (GPCR) RXFP1 results in ECM remodeling through regulation of collagen deposition, cell invasiveness, proliferation and overall tissue homeostasis. […] Recombinant human relaxin (rhRlx) is currently being tested in clinical trials as a protective agent in congestive heart failure, in treating severe preeclampsia, and as an anti-fibrotic agent in systemic sclerosis. Upon relaxin binding RXFP1 activation leads to the activation of adenylate cyclase (AC) via Gs. cAMP will activate PKA, which phosphorylates many signaling proteins. Thus, detection of cAMP increase is an easy and reliable indication of relaxin receptor activation. To screen for agonists of the relaxin receptor, a HEK293T cell line stably transfected with RXFP1 was used. RXFP1 activation was assayed by changes in cAMP levels as detected with a time-resolved fluorescence energy transfer (TR-FRET) cAMP detection kit.
NCGC Assay Protocol Summary: This is a cell-based assay for cAMP second messenger response to screen for agonists of the RXFP1 receptor. The assay was conducted in the presence of a PDE4 inhibitor (Ro 20174). The cells were lysed and the cAMP levels were measured with a TR-FRET cAMP kit. Presence of cAMP in the cell lysate disrupts binding between the cryptate-labeled anti-cAMP and d2-labeled cAMP pair, leading to a decrease in the TR-FRET signal. Data were normalized to the controls for basal activity (buffer only) and 100% activity (29 nM porcine relaxin). The EC50 values were determined from concentration-response data modeled with the standard Hill equation 1536-well assay protocol for the HEK293 RXFP1 cAMP assay: (1) Add 3 ul HEK293 RXFP1 cell culture. 2000 cells/well in DMEM/F12, 10% FBS, 1x Pen/Strep (dispensed offline with MultiDrop Combi). (2) Incubate 16-24 hr at 37C, 5% CO2. (3) Add 1 ul 400uM Ro20174 in DPBS, 0.05% BSA, 0.005% Tween 20. (3) Add 23 nl compounds in DMSO solution. Final concentration was 0.5 - 58 uM. (4) Incubate 30 min at 37C, 5% CO2. (5) Add 1 ul cAMP-d2 in lysis buffer (HTRF cAMP HiRange kit, CisBio). (6) Add 1 ul anti-cAMP antibody-cryptate in lysis buffer (HTRF cAMP HiRange kit, CisBio). (7) Incubate 30 min at room temperature. (6) Detect the assay plate in a ViewLux plate reader (PerkinElmer) with Ex=320 nm, Em1=615 nm and Em2=665 nm. Keywords: relaxin, RXFP1, RXFP2, G-protein coupled receptor, cAMP, agonist, high throughput screening, MLSMR, MLSCN, NIH Roadmap, qHTS and NCGC
Potency means the concentration at half of the fitted maximal effect; tags describe the fitted curve by direction and shape.

Chain of UniProt Q9HBX9 (Q9HBX9 whole entry, looked up): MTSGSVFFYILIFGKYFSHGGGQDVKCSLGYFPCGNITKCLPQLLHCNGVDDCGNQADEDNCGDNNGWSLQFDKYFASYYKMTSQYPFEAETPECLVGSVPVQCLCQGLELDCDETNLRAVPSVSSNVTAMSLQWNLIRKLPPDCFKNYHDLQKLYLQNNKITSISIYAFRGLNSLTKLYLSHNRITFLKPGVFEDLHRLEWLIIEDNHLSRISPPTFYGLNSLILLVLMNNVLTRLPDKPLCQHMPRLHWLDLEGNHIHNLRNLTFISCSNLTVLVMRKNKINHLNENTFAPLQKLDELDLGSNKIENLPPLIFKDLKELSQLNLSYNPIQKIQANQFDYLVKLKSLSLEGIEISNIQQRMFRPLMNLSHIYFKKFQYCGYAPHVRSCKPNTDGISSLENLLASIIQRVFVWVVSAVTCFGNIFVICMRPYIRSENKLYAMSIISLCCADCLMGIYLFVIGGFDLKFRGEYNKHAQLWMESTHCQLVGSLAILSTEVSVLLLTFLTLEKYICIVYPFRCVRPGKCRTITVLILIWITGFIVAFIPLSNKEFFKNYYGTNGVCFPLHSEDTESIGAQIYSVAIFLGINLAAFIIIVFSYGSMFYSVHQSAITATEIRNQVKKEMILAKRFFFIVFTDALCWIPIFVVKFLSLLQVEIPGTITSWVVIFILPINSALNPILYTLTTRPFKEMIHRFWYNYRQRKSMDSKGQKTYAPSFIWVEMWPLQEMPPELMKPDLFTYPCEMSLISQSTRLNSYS

| Structure (SMILES) | Potency |
| --- | --- |
| Cn1nnc2cc(NC(=O)Nc3cccc(Cl)c3)ccc21 | inconclusive: 39.8 µM [activator, single point] |
| Nc1ncc2[nH]cnc2n1 | inconclusive: 28.2 µM [activator, partial curve] |
| Cc1cccc(Cn2cccc(C(=O)Nc3cc(C)on3)c2=O)c1 | inconclusive: 39.8 µM [activator, single point] |
| COc1cccc(NC(=O)c2ccc3c(=O)n4nc(Nc5ccccc5OC)sc4nc3c2)c1 | inconclusive: 15.8 µM [activator, partial curve] |
| Cc1c(CC(=O)N2C[C@H]3C[C@@H](C2)c2cccc(=O)n2C3)c(=O)oc2cc(O)c(Cl)cc12 | inconclusive: 28.2 µM [activator, partial curve] |
| CCN1C(=O)C(=C2C=C(C)N(Cc3ccco3)C(C)=C2)C(=O)N(CC)C1=S | active: 28.2 µM |
| Cc1cc(NC(=O)c2cccn(Cc3ccccc3)c2=O)no1 | inactive |
| O=C1C(=O)N(c2nccs2)C(c2ccccc2)/C1=C(\O)c1ccc2c(c1)OCCO2 (stereo not given) | inconclusive: 15.8 µM [activator, partial curve] |
| CCOc1ccc(N=Cc2c(O)n(Cc3ccccc3)c(=S)[nH]c2=O)cc1 | inconclusive: 35.5 µM [activator, single point] |
| CCCCOCCCN1C(C)=CC(=C2C(=O)NC(=S)NC2=O)C=C1C | inconclusive: 39.8 µM [activator, single point] |
| CC[C@@]1(O)C(=O)OCc2c1cc1n(c2=O)Cc2cc3ccccc3nc2-1 | inconclusive: 12.6 µM [activator, partial curve] |
| CCOC(=O)c1ccc(NC(=O)c2sc3nc4c(cc3c2N)N2CCC4CC2)cc1 | inconclusive: 31.6 µM [activator, single point] |
| CC(C)CCn1c(N)c(C(=O)NCc2cccs2)c2nc3ccccc3nc21 | inactive |
| Nc1c(C(=O)Nc2ccc(Br)cc2F)sc2nc3c(cc12)N1CCC3CC1 | inconclusive: 39.8 µM [activator, partial curve] |
| Cn1cc(C(=O)N2CCC3(CC2)OCCO3)c2c3ccccc3n(C)c2c1=O | inactive |
| CSc1ccc(CN2CCN(C(=O)COc3ccc(C)cc3)CC2)cc1 | inactive |
| CCc1ccccc1NC(=O)c1cccn(Cc2ccccc2F)c1=O | inconclusive: 22.4 µM [activator, partial curve] |
| Nc1ccc2ccc3cccc[n+]3c2c1 | inconclusive: 28.2 µM [activator, partial curve] |
| Cc1ccc(-c2c(C)n3c4c(=O)n(C)c(=O)n(C)c4nc3n2CCO)cc1 | inconclusive: 17.8 µM [activator, partial curve] |
| Cc1ccc(-n2c(O)c(/C=N/c3ncc(Br)cc3Br)c(=O)[nH]c2=O)cc1 | inconclusive: 39.8 µM [activator, single point] |
| CC(C)CCOC(=O)c1c(N)n(CC2CCCO2)c2nc3ccccc3nc12 (stereo not given) | inactive |
| c1cc2c(cc1CN1CCNCC1)OCO2 | inactive |
| CCOc1ccc(-n2nc3c(=S)[nH]nc(C)c3c2C)cc1 | active: 5.62 µM |
| COc1ccc(-n2nc(C(=O)NCC(=O)N3CCC4(CC3)OCCO4)c3ccccc3c2=O)cc1OC | inconclusive: 17.8 µM [activator, partial curve] |

| Structure (SMILES) | Potency |
| --- | --- |
| COc1ccccc1C(=O)Nc1ccc2nc(SCC(=O)N3CCCc4ccccc43)sc2c1 | inconclusive: 31.6 µM [activator, partial curve] |
| Cc1ccc(C)c(S(=O)(=O)c2nnn3c2nc(N2CCN(C)CC2)c2sccc23)c1 | inconclusive: 17.8 µM [activator, partial curve] |
| CC1=NCCc2c1[nH]c1cc(O)ccc21 | inconclusive: 28.2 µM [activator, partial curve] |
| FC(F)=C(F)CCSc1ncn[nH]1 | inactive |
| CN(N)N=Nc1nc2c([nH]1)c(=O)n(C)c(=O)n2C | inconclusive: 22.4 µM [activator, partial curve] |
| C=CCn1c(O)c(/C=C2/C=c3ccccc3=N2)c(=O)[nH]c1=S | inconclusive: 35.5 µM [activator, single point] |
| CCNC(=O)[C@H]1O[C@@H](n2cnc3c(N)ncnc32)[C@H](O)[C@@H]1O | active: 1.26 µM |
| Cc1nn2c(=O)cc(COC(=O)c3ccccc3NC(=O)c3cccs3)nc2s1 | inconclusive: 39.8 µM [activator, single point] |
| CC1CCN(C(=O)c2ccc(N3CC4CC(C3)c3cccc(=O)n3C4)c([N+](=O)[O-])c2)CC1 (stereo not given) | inactive |
| Cc1cc(C=C2C(=O)N(C)C(=O)N(C)C2=O)c(C)n1-c1ccccc1 | inconclusive: 3.98 µM [activator, partial curve] |
| CC(C)(CN)CC(=O)O | inactive |
| Cc1cccc(Cn2cccc(C(=O)Nc3nnc(C)s3)c2=O)c1 | inconclusive: 39.8 µM [activator, single point] |
| Cc1cccc(C(=O)Nc2ccc(C(=O)OCc3cc(=O)n4nc(C5CC5)sc4n3)cc2)c1 | inconclusive: 35.5 µM [activator, single point] |
| N#Cc1cc2c(nc1SCC(=O)Nc1cccc(C(F)(F)F)c1)C1CCN2CC1 | inconclusive: 39.8 µM [activator, single point] |
| COC(=O)C(O)(c1ccc(NC(=O)c2cccs2)c(C)c1)C(F)(F)F (stereo not given) | inactive |
| CC[C@@]1(O)C(=O)OCc2c1cc1n(c2=O)Cc2cc3c(NC(=O)CN)cccc3nc2-1 | active: 14.1 µM |
| COC(=O)C1=C(c2ccc(-c3ccccc3)c(F)c2)C[C@@H]2CC[C@H]1N2C(=O)NC1CC1 | inactive |
| Oc1c(Cl)cc(Cl)cc1CN1CCN(Cc2ccccc2)CC1 | inactive |
| CC(C(O)c1ccccc1)N(C)CCn1cnc2c1c(=O)n(C)c(=O)n2C (stereo not given) | inconclusive: 22.4 µM [activator, partial curve] |
| CSC1=NP(=S)(SC)N(C)c2nc3n(c21)CCC3 (stereo not given) | inconclusive: 20 µM [activator, partial curve] |
| CC1=NN(c2ccccc2)C(=O)/C1=C/c1c(O)[nH]c(=O)[nH]c1=O | inactive |
| CC1CCCCC1NC(=O)Cn1nnc2ccccc2c1=O (stereo not given) | inconclusive: 17.8 µM [activator, partial curve] |
| Cc1cc(N2CCOCC2)nc2ccc(NC(=O)CCC(=O)N3CCC4(CC3)OCCO4)cc12 | inactive |
| CCOC(=O)c1c(/N=C/C2C(=O)NC(=S)NC2=O)sc2c1CCC2 | inactive |

| Structure (SMILES) | Potency |
| --- | --- |
| COC(=O)c1ccccc1N=Cc1c(O)[nH]c(=S)[nH]c1=O | inconclusive: 39.8 µM [activator, single point] |
| Cc1ccc(-c2nc(S(=O)(=O)c3ccccc3)c(SCC(=O)NC3CCCCC3)o2)cc1 | inconclusive: 25.1 µM [activator, single point] |
| Cc1ccc(Cn2cccc(C(=O)Nc3cc(C)on3)c2=O)cc1 | inconclusive: 39.8 µM [activator, single point] |
| CCCOP(=O)(OCCC)C(NC(=O)c1cc(OC)c(OC)c(OC)c1)c1ccccc1 (stereo not given) | inactive |
| CCOC(=O)c1c(NS(=O)(=O)c2ccccc2)n(CCCOC)c2nc3ccccc3nc12 | inconclusive: 22.4 µM [activator, partial curve] |
| CC(=O)c1cccc(NC(=O)CSc2ncc3c(n2)-c2cc(Cl)ccc2N(Cc2ccccc2)S3(=O)=O)c1 | inconclusive: 25.1 µM [activator, single point] |
| CC1=CC(c2ccccc2)NC(=S)N1 (stereo not given) | inconclusive: 39.8 µM [activator, single point] |
| Cc1cc(C)cc(OCC(=O)Nc2ccc(-c3nc4ccccc4s3)cc2)c1 | inconclusive: 39.8 µM [activator, single point] |
| Cc1cccc(C(=O)OCc2cc3ccccc3[nH]c2=O)c1 | inconclusive: 35.5 µM [activator, single point] |
| Cc1cccc(OCC(=O)Nc2cc(-c3ccccc3F)nn2-c2ccccc2)c1 | inconclusive: 39.8 µM [activator, single point] |
| O=C(O)c1sc2cc(Cl)ccc2c1Cl | active: 14.1 µM |
| O=C1NC(=O)N(c2ccc(Cl)cc2)C(=O)/C1=C/c1coc2ccc(O)cc2c1=O | inactive |
| C=CCn1c(O)c(C=Nc2c(C)n(C)n(-c3ccccc3)c2=O)c(=O)[nH]c1=O | inconclusive: 25.1 µM [activator, partial curve] |
| Cc1ccc(OCC(=O)N2CCN(CCc3ccncc3)CC2)cc1 | inactive |
| O=c1[nH]c(=S)n(Cc2ccc(F)cc2)c(O)c1C=NCc1ccc2c(c1)OCO2 | active: 25.1 µM |
| Cc1cccc(CCNCc2cc3cccc(C)c3[nH]c2=O)c1 | inconclusive: 35.5 µM [activator, single point] |
| Cc1nc2ccccc2c(=O)n1-c1ccc(Br)cn1 | inactive |
| O=c1c2ccccc2nc(/C=C/c2ccccn2)n1-c1ccccc1 | inactive |
| Cc1ccc(-c2nn3c(C)nnc3c3ccccc23)cc1S(=O)(=O)NCCO | inconclusive: 20 µM [activator, partial curve] and inconclusive: 22.4 µM [activator, partial curve] |
| COc1ccccc1OCCCn1cc(C(C)=O)c2ccccc21 | inactive |
| O=c1c2ccccc2nc(CSc2ncnc3nc[nH]c23)n1-c1ccccc1 | inconclusive: 39.8 µM [activator, single point] |
| Cc1ccc(C(C)C)c(OCC(=O)N2CCN(CCc3ccncc3)CC2)c1 | inconclusive: 39.8 µM [activator, single point] |
